Results reported in PMC2703648.
Results are given in words; binding and its absence hold for the method and conditions named. For part of these data: Binding seen in cells or lysates may run through a third protein. Some binding calls cover weakened binding; strength is not graded here. For part of these data: Tags and fused reporters may be left off the sequences shown.

Tests used:
[1] = molecular target: T1, dynamin purified from adult rat brain (rat (endogenous in rat brain)) (UniProt P21575); assay: co-sedimentation; dynamin self-assembly assay: purified dynamin (2.5 μg), pre-incubated or not on ice 1 h with purified GST or GST-IgFn (5 μg), 10 min at room temperature with liposomes of 10% PI(4,5)P2; 60,000 x g, 15 min; Coomassie staining of supernatant and pellet; both purified
T1 sequence: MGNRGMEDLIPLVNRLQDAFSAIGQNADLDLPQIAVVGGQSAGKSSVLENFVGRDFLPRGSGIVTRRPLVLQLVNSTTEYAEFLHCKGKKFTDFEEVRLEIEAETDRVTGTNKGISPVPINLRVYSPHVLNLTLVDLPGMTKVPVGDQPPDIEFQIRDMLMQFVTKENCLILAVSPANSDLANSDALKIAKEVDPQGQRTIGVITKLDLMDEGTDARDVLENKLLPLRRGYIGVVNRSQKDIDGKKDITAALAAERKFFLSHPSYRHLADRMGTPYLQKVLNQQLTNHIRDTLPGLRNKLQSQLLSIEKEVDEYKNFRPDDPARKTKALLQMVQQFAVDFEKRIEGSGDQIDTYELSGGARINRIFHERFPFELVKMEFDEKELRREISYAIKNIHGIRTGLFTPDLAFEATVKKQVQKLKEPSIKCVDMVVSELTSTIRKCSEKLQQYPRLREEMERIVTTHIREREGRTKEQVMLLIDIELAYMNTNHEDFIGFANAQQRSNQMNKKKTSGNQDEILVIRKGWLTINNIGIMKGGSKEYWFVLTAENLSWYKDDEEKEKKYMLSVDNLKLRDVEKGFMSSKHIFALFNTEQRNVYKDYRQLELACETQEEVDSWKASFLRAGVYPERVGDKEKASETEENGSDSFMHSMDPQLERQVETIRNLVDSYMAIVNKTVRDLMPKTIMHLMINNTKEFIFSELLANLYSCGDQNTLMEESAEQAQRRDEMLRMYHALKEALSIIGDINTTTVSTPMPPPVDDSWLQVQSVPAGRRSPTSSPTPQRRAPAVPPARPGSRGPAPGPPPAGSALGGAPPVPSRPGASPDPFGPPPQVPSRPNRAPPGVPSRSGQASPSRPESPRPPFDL

[2] = molecular target: T2, dynamin2 (rat, endogenous) (rat (endogenous in rat cortex)) (UniProt P39052); assay: co-IP; rat embryonic cortex cytosol immunoprecipitated with Kalirin-spectrin antibody (blots: pan-dynamin, dynamin1, dynamin2) or with dynamin antibody (blot: Kalirin12)
T2 sequence: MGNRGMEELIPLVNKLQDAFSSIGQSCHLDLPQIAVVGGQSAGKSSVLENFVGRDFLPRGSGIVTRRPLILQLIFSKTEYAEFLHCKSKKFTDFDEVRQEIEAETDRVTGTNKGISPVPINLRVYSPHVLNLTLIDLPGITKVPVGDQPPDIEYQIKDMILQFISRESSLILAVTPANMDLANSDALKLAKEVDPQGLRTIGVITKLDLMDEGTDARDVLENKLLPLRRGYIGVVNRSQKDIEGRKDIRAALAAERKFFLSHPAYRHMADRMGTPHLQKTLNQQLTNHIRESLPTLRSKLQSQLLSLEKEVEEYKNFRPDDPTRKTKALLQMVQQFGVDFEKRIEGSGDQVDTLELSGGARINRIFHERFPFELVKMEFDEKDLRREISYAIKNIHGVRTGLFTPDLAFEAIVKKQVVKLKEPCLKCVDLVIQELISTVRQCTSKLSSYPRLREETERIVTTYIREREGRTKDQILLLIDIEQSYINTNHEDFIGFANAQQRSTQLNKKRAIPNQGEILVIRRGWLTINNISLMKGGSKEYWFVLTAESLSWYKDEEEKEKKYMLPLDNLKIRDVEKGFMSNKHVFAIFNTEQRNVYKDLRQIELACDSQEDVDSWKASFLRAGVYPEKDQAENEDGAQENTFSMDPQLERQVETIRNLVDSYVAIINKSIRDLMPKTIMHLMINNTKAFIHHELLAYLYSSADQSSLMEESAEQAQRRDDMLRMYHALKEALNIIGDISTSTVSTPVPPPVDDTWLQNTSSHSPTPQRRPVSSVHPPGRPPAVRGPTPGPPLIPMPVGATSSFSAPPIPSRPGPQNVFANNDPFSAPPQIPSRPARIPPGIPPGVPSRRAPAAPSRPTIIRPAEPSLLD

[3] = molecular target: T3, dynamin2/GTPase-GFP fusion protein (human) (UniProt P50570); assay: co-IP; extracts of pEAK Rapid cells co-expressing dynamin2/GTPase-GFP with Kalirin7 or Kalirin12, immunoprecipitated with polyclonal GFP antibody or control immunoglobulin, blotted with Kalirin-spectrin antibody
T3 sequence: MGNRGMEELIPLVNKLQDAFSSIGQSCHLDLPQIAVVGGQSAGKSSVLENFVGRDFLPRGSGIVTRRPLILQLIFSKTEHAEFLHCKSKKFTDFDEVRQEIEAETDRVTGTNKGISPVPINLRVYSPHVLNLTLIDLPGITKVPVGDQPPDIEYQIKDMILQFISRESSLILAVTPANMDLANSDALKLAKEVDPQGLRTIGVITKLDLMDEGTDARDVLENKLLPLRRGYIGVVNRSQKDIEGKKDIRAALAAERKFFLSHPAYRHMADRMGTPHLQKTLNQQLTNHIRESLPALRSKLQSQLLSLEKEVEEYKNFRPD

“GST-IgFn (IgFn region of rat Kalirin12 fused to GST) (from UniProt P97924-4 2456-2625) (domain or fragment)” was tested, and the binding [1] was “binds”.
With “Kalirin12 (endogenous) (from UniProt P97924-4 1-2968)” the binding [2] was “binds”.
In the case of “full-length myc-tagged Kalirin12 (from UniProt P97924-4 1-2968)”, the binding [3] is reported as “binds”.
